Experimental data published in PubChem BioAssay AID1346428 (National Center for Advancing Translational Sciences (NCATS), 2018).
In all, about 48,000 compounds went through this assay and about 1,200 (2.5%) were called active. Not shown: some 2% with an inconclusive outcome.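 How the source made its calls: active means activation of at least 60% and not above a set upper limit (about 1 call in 100 departs from these limits); inconclusive means activation of 40% to 60%, or above that upper limit; inactive means activation under 40%.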 The list shows a part of the results.

Target: Probable G-protein coupled receptor 32 (Homo sapiens) (UniProt O75388)
UniProt O75388, sequence (O75388 whole entry, looked up): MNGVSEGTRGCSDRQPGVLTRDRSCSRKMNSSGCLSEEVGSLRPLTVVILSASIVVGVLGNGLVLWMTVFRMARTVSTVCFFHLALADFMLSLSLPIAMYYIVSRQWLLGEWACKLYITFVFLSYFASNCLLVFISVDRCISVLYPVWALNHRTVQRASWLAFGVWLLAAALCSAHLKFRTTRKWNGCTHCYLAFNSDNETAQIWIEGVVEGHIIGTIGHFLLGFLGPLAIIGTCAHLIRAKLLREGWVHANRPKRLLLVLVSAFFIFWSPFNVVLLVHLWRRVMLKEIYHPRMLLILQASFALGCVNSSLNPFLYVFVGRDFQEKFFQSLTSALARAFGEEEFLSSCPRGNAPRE
Test: qHTS for Agonists of Human Resolvin D1 Receptor DRV1; further: 0% is about no effect
Conditions: CHO-K1 GPR32 beta-arrestin PathHunter luminescence, 90 min; at 76.9 µM; hits give high values; zero percent set by DMSO-only wells
Method in brief: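 GPR32 activation in stably transfected CHO-K1 cells, detected as beta-arrestin recruitment by enzyme-fragment complementation. Compound exposure: 90 min, 37 °C.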

activation, active:
Cc1nn2c(=O)cc(COC(=O)c3ccc(NC(=O)COc4ccccc4F)cc3)nc2s1 62.4%, Cc1nc2c(c(C)nn2C(C)(C)C)c(C)c1CCC(=O)Nc1ccc(F)cc1 74.1%

activation, inactive:
COc1ccccc1N1CCN(c2cc(C)nc3nncn23)CC1 7.61%, CC(C)c1cc(-c2nc(-c3cccc(Cl)c3)no2)n[nH]1 24.5%, Cc1ccc2oc(C(=O)Nc3sc4c(c3C(=O)NCc3ccco3)CCC4)cc(=O)c2c1 29.6%, CC(=O)c1ccc(N2CCN(C(=O)CCCn3c(=O)[nH]c4ccsc4c3=O)CC2)cc1 35.9%, Cn1c(C(=O)NCc2cccc(Cl)c2)cc2oc3ccccc3c21 -11.7%, Cc1nn(CC(=O)NCc2ccc(N(C)C)cc2)c(=O)c2nn(-c3ccccc3)c(C)c12 -4.33%, COc1ccc(C(CC(=O)Nc2ccc(Br)cn2)N2Cc3ccccc3C2=O)cc1 (centres undefined) -19.8%, COCCCNC(=O)c1ccc(Cn2c(=O)c3cccn3c3cccnc32)cc1 5.37%, Cc1ccc(Cn2c(CN3CCN(c4cccc(Cl)c4)CC3)nc3c2c(=O)n(C)c(=O)n3C)cc1 -36.5%, O=[N+]([O-])c1ccc(O)c(-c2ccnc3cc(-c4ccccc4)nn23)c1 -25%, COc1ccccc1CCNC(=O)C1CCN(c2nnc(C)c3c(C)n(-c4ccc(C)cc4)nc23)CC1 -12.9%, Cc1cc(Cl)ccc1OCC(=O)N(Cc1ccc(N(C)C)cc1)C1CCS(=O)(=O)C1 (centres undefined) -34.4%, CCCn1cc(S(=O)(=O)c2cccc(Cl)c2)c(=O)c2cc(F)c(N3CCCC3)cc21 -16.9%, Cc1cccc(C(C)C)c1NC(=O)c1ccc2c(c1)CCCN2S(C)(=O)=O -3.42%, Cc1ccc(NC(=O)CSc2nccn2C2CCCC2)cc1Cl -0.612%, CCOC(=O)c1cc(-c2ccc(C)cc2)n(CC(=O)Nc2ccc(OC)cc2OC)c1C 4.68%, Cc1ccc(S(=O)(=O)CCC(=O)N2CCN(c3nc4c(C)c(C)ccc4s3)CC2)cc1 28.6%, Cc1ccc(S(=O)(=O)N(CC(=O)NCCSc2ccc(Cl)cc2)c2cccc(Cl)c2)cc1 -1.94%, CCN1CCN(C(c2ccc(F)cc2)c2sc3nc(-c4ccco4)nn3c2O)CC1 (centres undefined) -5.78%, CC(=O)N1CCCC1c1nc2ccccc2n1Cc1ccccc1F (centres undefined) -4.94%, CCC(C)NC(=O)c1cnn(-c2cccc(F)c2)c1-n1cccc1 (centres undefined) -0.359%, Cc1ccc(OCC(=O)Nc2nonc2-c2ccc(Br)cc2)cc1 22.3%, COc1ccc(N2CCN(C(c3ccc(F)cc3)c3sc4nc(-c5ccco5)nn4c3O)CC2)cc1 (centres undefined) 16.4%, CCc1cc(=O)[nH]c(SCc2nc(-c3ccc(C(F)(F)F)cc3)no2)n1 -6.2%, CCCCCN(C)CCC(O)(P(=O)(O)O)P(=O)(O)O -9.22%, O=C(Nc1cccc2c1CCCC2)N1CCOc2ccc(Cl)cc21 -29.8%, CC(C)OCCCNC(=O)CN1C(=O)c2ccccc2Sc2ncccc21 2.88%, CCCC(=O)Nc1ccc2nc(SCC(=O)N3CCOCC3)sc2c1 -5.71%, Fc1ccc(N2CCN(c3ncnc4[nH]ncc34)CC2)cc1 17%, N#C/C(=C\c1ccc(-c2cccc(Cl)c2)o1)C(=O)Nc1cccc(C(F)(F)F)c1 9.14%, Cc1oc2ncnc(N3CCOCC3)c2c1C(=O)NCc1ccc(Cl)cc1 -5.72%, COc1ccc(CNC(=O)c2cccn2-c2nnc(N3CCCCC3)s2)c(OC)c1 -2.66%, C1N2CN3CN1CN(C2)C3 -7.94%, COc1ccc(-c2cc(C(=O)NCCc3ccccc3)c3c(-c4ccc(Cl)cc4)[nH]nc3n2)cc1 1.5%, COc1ccc(CCNC(=O)CS(=O)(=O)Cc2nc(-c3cccc(Cl)c3)oc2C)cc1OC 19.9%, CC(C)c1ccccc1NC(=O)Cn1cnc2c1c(=O)n(C)c(=O)n2C 7.3%, CCCNC(=O)c1c(NC(=O)c2ccccc2)sc2c1CCC(C(C)(C)C)C2 (centres undefined) 8.84%, O=C(Cn1c(=O)n(Cc2ccc(C(=O)NCc3ccc4c(c3)OCO4)cc2)c(=O)c2ccccc21)Nc1ccccc1F 5.57%, O=C(CCS(=O)(=O)c1cc(Br)cc2c1N(C(=O)C1CC1)CC2)N1CCN(c2cccc(C(F)(F)F)c2)CC1 -18.6%, Cc1ccc(CSc2nc3ccncc3n2Cc2nc(-c3ccccc3C)oc2C)cc1 11.5%, CCCc1nnc(NC(=O)C(CC)Sc2nnc3c4ccccc4n(C)c3n2)s1 (centres undefined) -11.2%, COc1ccc(CNC(=O)c2sc3nc4n(c(=O)c3c2C)CCC4)cc1 -9.54%, COc1ccc(-n2ccn(CC(=O)Nc3ccc(C)cc3C)c(=O)c2=O)cc1 -9.4%, CC(C)N(Cc1nc(-c2ccc(Cl)cc2)no1)C(=O)c1ccco1 17.8%, CC(C)(C)c1ccc(C(=O)NC(Cc2c[nH]c3ccccc23)C(=O)OCC(=O)c2ccc(Br)cc2)cc1 (centres undefined) -15.6%, COc1ccc2c(c1)c1c(c(=O)n(-c3cccc(C)c3)c(=O)n1CC(=O)NCc1ccc(C)cc1)n2C 9.64%, Cc1ccc(OCC(=O)Nc2ccc3nn(-c4ccc(C)cc4)nc3c2)cc1 1.16%, COC(=O)c1cc(C)nc2c1c(=O)nc(SCc1ccccc1Cl)n2C1CC1 -14.8%, Cc1cccc(CCNC(=O)CCS(=O)(=O)c2cc3c(cc2C)NC(=O)CO3)c1 4.75%, Cc1nn(CCC(=O)Nc2ccccc2Br)c(=O)c2nn(-c3ccccc3)c(C)c12 -5.19%, CCc1nnc2c(Nc3ccccc3Br)nc3ccccc3n12 5.11%, COc1ccccc1N1CCN(C(=O)CNS(=O)(=O)c2ccc(Br)s2)CC1 45.1%
